# Laboratory results from PubChem BioAssay AID588342 (National Center for Advancing Translational Sciences (NCATS), 2011).
# Screen size: about 360,000 compounds; about 25,000 (6.9%) were called active. This list was built around the results that the source calls inconclusive (neither active nor inactive); the mix of calls is not that of the screen. The call rests on the fitted dose curve; in most records, active means well fitted inhibition curve with a large enough effect; inconclusive means small, poorly fitted or top-dose-only effect; inactive means flat fitted curve, though single readings scatter. Where the call is inconclusive, the potency comes from a doubtful curve fit.
# Target: Luciferin 4-monooxygenase (Photinus pyralis) (UniProt P08659)
# Experiment: qHTS profiling assay for firefly luciferase inhibitor/activator using purifed enzyme and Km concentrations of substrates (counterscreen for miR-21 project); further: nearly all actives have a fitted effect of over 55% in size
# Conditions: purified FLuc, luminescence inhibition; series mostly up to 57.5 µM
# How it was run: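 Purified P. pyralis luciferase, 10 nM final, with Km-level 10 uM D-luciferin and 10 uM ATP in 50 mM Tris acetate pH 7.5, 10 mM Mg acetate, 0.01% Tween-20, 0.05% BSA; 6-point qHTS titration about 60 µM downward; luminescence read.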
# Potency means the concentration at half of the fitted maximal effect; tags describe the fitted curve by direction and shape.
# Sequence of UniProt P08659 (P08659 whole entry, looked up): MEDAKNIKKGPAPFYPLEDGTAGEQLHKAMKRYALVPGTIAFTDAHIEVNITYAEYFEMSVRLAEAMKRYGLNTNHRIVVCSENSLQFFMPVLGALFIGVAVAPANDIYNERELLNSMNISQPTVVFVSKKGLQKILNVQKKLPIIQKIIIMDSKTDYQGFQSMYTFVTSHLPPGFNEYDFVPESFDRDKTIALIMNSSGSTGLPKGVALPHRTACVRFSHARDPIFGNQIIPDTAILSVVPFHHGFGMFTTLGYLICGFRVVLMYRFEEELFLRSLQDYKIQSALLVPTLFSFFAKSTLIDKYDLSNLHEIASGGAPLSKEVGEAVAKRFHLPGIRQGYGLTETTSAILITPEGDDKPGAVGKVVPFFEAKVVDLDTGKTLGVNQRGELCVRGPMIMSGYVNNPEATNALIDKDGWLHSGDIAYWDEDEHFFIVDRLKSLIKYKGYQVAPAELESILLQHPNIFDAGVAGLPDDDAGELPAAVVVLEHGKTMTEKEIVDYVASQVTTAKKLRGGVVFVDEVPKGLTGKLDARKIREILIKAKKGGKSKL
row,Compound,Potency
1,Nc1nc(SCc2ccc(Br)cc2)n[nH]1,"inconclusive: 21.3 µM [inhibitor, partial curve, poor fit]"
2,CC(=O)Nc1ccc(S(=O)(=O)N(C)Cc2cnn(C)c2)cc1,inactive
3,CSC1=NS(=O)(=O)c2c(C)nn(C)c2S1,"inconclusive: 23.9 µM [inhibitor, partial curve, poor fit]"
4,Cc1cc(NC(=O)c2ccc([N+](=O)[O-])cc2Cl)no1,"inconclusive: 19 µM [inhibitor, partial curve, poor fit]"
5,CN(C(=O)COC(=O)c1c2c(nc3ccccc13)/C(=C/c1cccc([N+](=O)[O-])c1)CCC2)C1CCS(=O)(=O)C1 (stereo unspecified),inactive
6,CCN1CCc2nc3sc(C(=O)N4CCc5ccccc5C4)c(N)c3cc2C1,"inconclusive: 37.9 µM [inhibitor, partial curve, poor fit]"
7,O=C(CSc1ncn[nH]1)Nc1ccc2c(c1)OCCO2,"inconclusive: 33.8 µM [inhibitor, single point]"
8,Cc1ccc(S(=O)(=O)N2CC(O)CC2C(=O)OCC(=O)c2ccccc2Cl)cc1C (stereo unspecified),"inconclusive: 26.9 µM [inhibitor, partial curve, poor fit]"
9,CCN(C(=O)COC(=O)CNC(=O)c1sc2ccccc2c1Cl)C1CCCCC1,active: 12 µM
10,CCCOC(=O)c1ccc(NC(=O)C(=O)NCCN(CC)CC)cc1,inactive
11,C/C(=N\NC(=O)c1ccccc1)c1ccccc1Br,active: 15.1 µM
12,O=C(NCCc1ccc(Cl)cc1)C1=CC=CN2CCS(=O)(=O)N=C12,inactive
13,COc1ccc(NC(=O)CSc2ccc(-c3ccco3)nn2)c(OC)c1,"inconclusive: 23.9 µM [inhibitor, single point]"
14,O=C1C(Cl)=C(Nc2ccc3cn[nH]c3c2)C(=O)c2ccccc21,"inconclusive: 23.9 µM [inhibitor, single point]"
15,O=C(/C=C\Nc1ccc2c(c1)OCO2)c1cccs1,active: 0.12 µM
16,COc1ccccc1NCc1cccn1-c1nnc(N2CCCCCC2)s1,"inconclusive: 23.9 µM [inhibitor, single point]"
17,Cc1cc(C)n(-c2nc3ccccc3nc2Nc2ccc(Cl)c(Cl)c2)n1,inactive
18,Cc1ccc(S(=O)(=O)Nc2ccc3c(c2)C(=O)NC3=O)cc1[N+](=O)[O-],inactive
19,COc1ccccc1N1CCN(CC(=O)Nc2ccccc2C(=O)NC(C)c2ccccc2)CC1 (stereo unspecified),inactive
20,COC(=O)c1ccccc1NC(=O)c1sc(N)nc1C,"inconclusive: 21.3 µM [inhibitor, single point]"
21,COc1cccc(CN2CCN(Cc3cccc4nonc34)CC2CCO)c1 (stereo unspecified),inactive
